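Five compound concentrations were applied to cells in 96-well plates for 48 hours; endpoints were derived by simple linear interpolation of the resulting dose-response curve. The concentration for 50% growth inhibition is given as GI50. TGI denotes the concentration required for complete inhibition of growth.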 Numbered stars: 1 amine (or outer) side, 2 acyl side, 3 side chain; on linkers, the order of the positions; unused ones are H or OH. Bridge positions count the residues as written; N and C are the ends. Square brackets hold non-standard residues; d marks the D form. Peptide text beside a SMILES is read from it. ξ: configuration not given here. X30 = CCC(C)C(N[*:1])C(O)CC(=O)O[C@H](C(=O)C(C)C(=O)[*:2])C(C)C; NMeY = CN[C@@H](Cc1ccc(O)cc1)C(=O)O; ξNMeL = CNC(CC(C)C)C(=O)O; ξT = CC(O)C(N)C(=O)O Where only a bound is given, the exact number is not on record here.

For the test, the system named is NCI-H322M lung. The experiment in a line: NCI tumour cell line growth inhibition, 48 h.
`COC1/C=C/C(C)C(C(C)C(OC)C(C)CCC(=O)C(C)C(CCC(=O)O)OC)OC(=O)/C=C/C=C(\C)CC(OC)CC2=CC(=O)O[C@@H](C(C)C(OC)CC(OC)/C=C/C(C)C(OC)C1)[C@H]2O` (stereo partly drawn) registered a TGI greater than 5 µM.

Compound `Oc1ccc(N=Nc2ccc(Cl)cc2)cc1` registered a TGI of 37.3 µM. The compound `O=[N+]([O-])c1c(/C=N/Nc2ccccc2)oc(-c2ccc3c(c2)OCO3)c1-c1ccc2c(c1)OCO2` returned a TGI greater than 100 µM. As to `CCCCCCC/C=C/[C@H]1O[C@]23C(=O)C[C@@]4(C[C@@H](OC5OC(CO)C(O)C(O)C5O)C[C@@H]4[C@H]2C=C1C)OC3=O` (stereo partly drawn), the GI50 is 5.16 µM and the TGI came to 10.4 µM. `O=C(/C=C/c1ccc([N+](=O)[O-])cc1)c1nc2ccccc2[nH]1` registered a TGI greater than 100 µM. The same measure, in the same setting: the value for `NC(=O)COc1ccccc1` was greater than 100 µM; that for `N#Cc1c2c(c(N3CCOCC3)n3c1nc1ccccc13)CCCC2` was 33.9 µM; that for `CCCC(=O)c1c(NOC2OC(COC(C)=O)C(OC(C)=O)C(OC(C)=O)C2OC(C)=O)nc(OC)n(C)c1=O` (stereo not drawn) was greater than 100 µM. The compound `CCN(CC)c1ccc(N=Nc2ccc(-c3nc4cccnc4o3)cc2)cc1` yielded a TGI greater than 100 µM. Turning to `CC1(C)[C@@H]2C[C@H]1c1cnc(-c3ccccn3)cc1C2[C@@H]1c2cc(-c3ccccn3)ncc2[C@@H]2C[C@H]1C2(C)C` (stereo partly drawn), the TGI was greater than 100 µM. Consider `CC(C)c1ccc(Cc2cnc(NC(=O)c3cc(Br)cs3)s2)cc1`, for which the GI50 was 7.17 µM and the TGI is greater than 100 µM. In turn, `O=c1cc(-c2ccccc2)[nH]c2cc(Cl)cc(Cl)c12` showed a TGI greater than 100 µM. Still for that read-out and setting: the figure for `O=C(O)C1CCc2ccc3ccccc3c2C1c1cccc2ccccc12` (stereo not drawn) is 32.3 µM. Turning to `COc1cc(/C=C/c2cc(C(F)(F)F)[nH]c(=O)n2)ccc1OCc1ccccc1F`, the GI50 was 8.23 µM and the TGI worked out at 22.3 µM. The compound `CCOC(=O)C1=C(C)NC(=S)NC1c1cccc(O)c1` (stereo not drawn) had a TGI greater than 100 µM. Same read-out and setting: the value for `CCN(CC)CCn1c2c3ccccc3ccc2c2oc(=O)c3ccccc3c21` was greater than 100 µM. Turning to `C[CH2][Sn]1([CH2]C)[O]C(=O)[O][Sn]([CH2]C)([CH2]C)[O]1`, the GI50 was 32.2 µM and the TGI was greater than 86.2 µM.

The compound `CCCCCCCCCCCCCCCCCCOCC(O)COP(=O)(O)OCC1OC(n2cc(F)c(=O)[nH]c2=O)CC1O` (stereo not drawn) came in with a TGI of 25.2 µM. In turn, `O=c1oc2ccccc2c(O)c1/C=N\c1nc(-c2ccccc2)cs1` had a TGI greater than 100 µM. `O=C(Nc1ccccc1)c1ccc(Cl)c([N+](=O)[O-])c1` displayed a TGI of 47.4 µM. In the case of `N#CC1=CNc2sccc2S1(=O)=O`, the TGI is greater than 100 µM. `COc1ccc2c(c1)sc1nc(-c3ccccc3)c(-c3ccsc3)n12`: the GI50 is greater than 100 µM and the TGI was greater than 100 µM.

`CCC(C)C1NC(=O)C(NC(=O)C(CC(C)C)N(C)C(=O)[C@@H]2CCCN2)C(C)OC(=O)[C@H](Cc2ccc(OC)cc2)N(C)C(=O)[C@@H]2CCCN2C(=O)[C@H](CC(C)C)NC(=O)C(C)C(=O)[C@H](C(C)C)OC(=O)CC1O` (stereo partly drawn) (H-P[ξNMeL][ξT][X30]LP[NMeY](Me); ester 3-C) had a TGI of 0.0101 µM.

For the origin of these results see PubChem BioAssay (NCI).
